Assay results as given in article PMC4336329 (PLoS ONE, 2015).
About 2,200 (0.71%) of roughly 310,000 compounds showed an effect of 50% or more. The effect is printed as a negative number. The list shows a part of the results.

biological target: human ether-à-go-go-related gene (hERG) potassium channel (human, UniProt Q12809); test: primary screen, population patch clamp on CHO cells stably expressing hERG
Sequence (Q12809 whole entry, looked up): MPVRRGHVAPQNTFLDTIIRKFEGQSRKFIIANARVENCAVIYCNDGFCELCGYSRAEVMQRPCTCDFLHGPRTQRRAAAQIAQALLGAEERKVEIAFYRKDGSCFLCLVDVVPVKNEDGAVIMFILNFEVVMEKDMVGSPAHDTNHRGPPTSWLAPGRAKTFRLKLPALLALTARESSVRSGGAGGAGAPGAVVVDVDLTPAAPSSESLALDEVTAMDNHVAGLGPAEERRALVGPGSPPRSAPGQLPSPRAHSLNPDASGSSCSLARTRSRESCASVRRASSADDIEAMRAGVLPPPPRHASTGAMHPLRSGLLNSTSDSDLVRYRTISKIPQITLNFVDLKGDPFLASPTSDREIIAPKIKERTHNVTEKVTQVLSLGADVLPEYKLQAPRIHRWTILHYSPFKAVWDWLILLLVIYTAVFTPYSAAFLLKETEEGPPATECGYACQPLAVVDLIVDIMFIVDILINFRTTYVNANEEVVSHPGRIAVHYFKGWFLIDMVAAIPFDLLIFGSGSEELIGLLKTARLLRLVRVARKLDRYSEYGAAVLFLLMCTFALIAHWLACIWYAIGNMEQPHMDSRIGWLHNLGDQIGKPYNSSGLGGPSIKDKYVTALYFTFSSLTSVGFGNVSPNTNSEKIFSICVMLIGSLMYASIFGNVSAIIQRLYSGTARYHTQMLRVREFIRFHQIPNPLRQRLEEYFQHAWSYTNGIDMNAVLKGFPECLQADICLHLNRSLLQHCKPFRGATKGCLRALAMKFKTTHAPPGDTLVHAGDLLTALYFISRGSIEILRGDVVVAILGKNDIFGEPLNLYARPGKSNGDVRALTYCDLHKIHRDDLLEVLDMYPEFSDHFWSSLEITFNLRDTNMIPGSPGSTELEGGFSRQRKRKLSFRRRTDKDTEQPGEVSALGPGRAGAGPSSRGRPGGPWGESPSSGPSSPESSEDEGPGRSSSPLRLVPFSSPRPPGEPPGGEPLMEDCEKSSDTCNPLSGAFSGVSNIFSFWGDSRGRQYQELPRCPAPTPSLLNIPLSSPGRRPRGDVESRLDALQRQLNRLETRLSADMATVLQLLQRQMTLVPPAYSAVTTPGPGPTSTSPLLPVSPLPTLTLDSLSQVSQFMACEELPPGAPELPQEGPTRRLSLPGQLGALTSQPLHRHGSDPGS

| Structure (SMILES) | hERG current change (%, negative = inhibition) at 1uM [%] |
| --- | --- |
| COc1ccc(N/N=C(/C#N)S(=O)(=O)C(C)(C)C)cc1 | 12.8 |
| Cc1cccc(OCc2nc(-c3cccnc3)no2)c1 | 16.1 |
| Cc1c(C)c2c(OCC(=O)N[C@@H](CC(C)C)C(=O)O)cc3c(c2oc1=O)CCC(C)(C)O3 | 10.1 |
| CC(C)CCN(C(=O)Nc1ccccc1)C(C)c1cccs1 (centres unmarked) | 7.97 |
| CCOC(=O)c1ccc(NC(=S)Nc2ccc(Br)cc2N)cc1 | 18.6 |
| C=CCN1C2CCCC1CC(NC(=S)Nc1ccc(Cl)cc1)C2 (centres unmarked) | -6.84 |
| COc1ccc(-n2c(SCC(=O)NCC3CCCO3)nc3c([nH]c4ccccc43)c2=O)cc1 (centres unmarked) | 17.3 |
| CCOc1ccc(Br)cc1C(=O)Nc1ccc(C(=O)NCC(C)C)cc1 | -1.92 |
| COC(=O)C1=CO[C@@H](C)[C@@H]2CN3CC[C@@]4(C(=O)Nc5ccccc54)[C@@H]3C[C@H]12 | 13.6 |
| COc1ccc(Cl)cc1N1C(=O)CC(N2CCc3ccccc32)C1=O (centres unmarked) | 9.34 |
| Cc1ccc(Oc2nc3ccccn3c(=O)c2/C=C(\C#N)C(=O)Nc2c(C)n(C)n(-c3ccccc3)c2=O)c(C)c1 | 13.5 |
| O=c1ccc2ccc(Oc3ccc([N+](=O)[O-])cc3Cl)cc2o1 | 12.3 |
| COc1ccc(S(=O)(=O)NC(C)C(=O)NCc2ccccn2)cc1Cl (centres unmarked) | 13.8 |
| O=C(COc1ccc2ccc(=O)oc2c1)N1CCC(C(=O)O)(c2ccccc2)CC1 | 13.6 |
| Cc1ccc(OCC(=O)Nc2ccccc2C(=O)NC2CC2)cc1 | 15.6 |
| O=C(O)c1ccc(Cl)c(S(=O)(=O)Nc2cccc(C(=O)Nc3cccc(C(F)(F)F)c3)c2)c1 | 10.7 |
| CCOc1ccc(CCNC(=O)C2CCCN(S(=O)(=O)c3c(C)n[nH]c3C)C2)cc1OCC (centres unmarked) | 7.56 |
| O=C(CCCN1C(=O)C2C3C=CC(C3)C2C1=O)N1CCN(c2ccccc2)CC1 (centres unmarked) | 3.01 |
| O=C(O)c1cc(OCc2ccccc2)cc(OCc2ccccc2)c1 | 11.1 |
| CCn1c2ccccc2c2cc(NC(=O)CSc3nnc(-c4ccccc4)o3)ccc21 | 6.09 |
| COc1ccc(CN(C)CCc2ccccn2)cc1OC.O=C(O)C(=O)O | 5.36 |
| Cc1ccc(S(=O)(=O)Nc2cccc(C(=O)NCC3CCCO3)c2)cc1F (centres unmarked) | 15.3 |

| Structure (SMILES) | hERG current change (%, negative = inhibition) at 1uM [%] |
| --- | --- |
| CCOC(=O)C1=C(O)/C(=C/c2ccccn2)SC1=Nc1ccc(Cl)cc1 | 11.8 |
| Cn1c(C2CCCCC2)nc2cc(N)ccc21 | 12.3 |
| O=C(CCNC(=O)N1CC(=O)Nc2ccccc21)Nc1ccc(Br)cc1F | 15.9 |
| COc1ccccc1OCCNc1nc2c(c(=O)n(C)c(=O)n2C)n1C | 5.8 |
| O=C(CCc1c[nH]c2ccccc12)NCC1COc2ccccc2O1 (centres unmarked) | 12.7 |
| COCCNC(=O)CC(NS(=O)(=O)c1ccc(NC(C)=O)cc1)C(C)C (centres unmarked) | 1.01 |
| CCc1ccc2oc(-c3cc(N)ccc3Cl)nc2c1 | 12 |
| C#CCN(C(=O)c1cc(COc2cccc(C(F)(F)F)c2)on1)C1CCCCC1 | 9.83 |
| CCN(CC)CCCN1C=C2C(=O)C(C)(OC(=O)CCc3ccccc3)C(=O)C=C2C=C1c1ccc(C#N)cc1 (centres unmarked) | 8.18 |
| CCc1ccccc1NC(=O)C1CCCN(S(=O)(=O)c2c(C)noc2C)C1 (centres unmarked) | 15.8 |
| Cc1cc(Oc2ccccc2)nc(SCC(=O)Nc2ccc(Cl)cc2Cl)n1 | 5.61 |
| CCOc1ccc(N2CC(C(=O)Nc3nnc(Cc4ccccc4)s3)CC2=O)cc1 (centres unmarked) | 11.8 |
| Cc1cc(Nc2ccc(Br)cc2F)n2nc(C)nc2n1 | -5.23 |
| Cc1cnc(NC(=O)CN2C(=O)C3CC=CCC3C2=O)s1 (centres unmarked) | 32.5 |
| CCCc1cc(C(=O)N/N=C/c2cccn2C)cs1 | 0.4 |
| CCN(CC)CCC(=O)NC(C)(C)Cc1ccc(O)cc1 | 9.74 |
| Cc1cc(C)nc(SCC(=O)N/N=C/c2ccc3c(c2)OCO3)n1 | 7.8 |
| CCc1ccc2[nH]c3nc(C)cc(C)c3c(=O)c2c1 | 1.99 |
| CC(C)=C1SC(N2CCN(c3ccc(C)cc3)CC2)=NC1=O | -9.9 |
| O=C(NCCN1CCOCC1)c1ccc2c(c1)N(Cc1ccc(F)cc1)C(=O)CS2 | 12.8 |
| COCCNC(=S)N/N=C(\C)c1cccc(C(F)(F)F)c1 | 14.4 |
| Cc1ccc(NC(=O)C(c2ccccc2)N2CCN(CC(=O)NC3CC3)CC2)cc1Cl (centres unmarked) | -2.31 |
